# About 5,000 (1.2%) of roughly 410,000 compounds were called active. The shares of active, inactive and inconclusive entries below differ from those in the screen. The call rests on the fitted dose curve; in most records, active means well fitted inhibition curve with a large enough effect; inconclusive means small, poorly fitted or top-dose-only effect; inactive means no such curve, though single readings can be large or run the other way. Potencies of inconclusive entries are doubtful fits and often do not repeat.
# Assay: qHTS for Inhibitors of TGF-b; further: nearly all actives have a fitted effect of over 65% in size
# Conditions: HepG2 CAGA-GFP TGF-b/SMAD3 reporter, GFP fluorescence, 18 h, TGF-beta stimulated, 500 pg/mL final; series mostly up to 46.1 µM; activity, negative = inhibition: at the top concentration
# Outline: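 Using HEPG2 CAGA-GFP reporter cells at 1000 cells/well, we pinned test compounds, stimulated with recombinant TGF-beta (500 pg/mL final) and measured total well GFP after 18 h.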
# On the % scale 0 is the no-effect control and ±100 the full control effect; potency means the concentration at half of the fitted maximal effect; tags describe the fitted curve by direction and shape.
SMILES,Potency,"activity, negative = inhibition"
Cc1cc(NCCO)c2ccccc2n1,"inconclusive: 2.51 µM [inhibitor, partial curve, poor fit]",
O=C1CCN(CCc2ccccc2)CCN1[C@H](CSc1ccc(Br)cc1)Cc1ccccc1,"inconclusive: 22.4 µM [inhibitor, single point]",
O=C(c1cc(COc2ccc(F)cc2Cl)on1)N1CCCC(c2ccccc2)C1 (stereo not given),,inactive: -21.9%
COc1ccc(NC(=O)C(=O)NCC(c2cccnc2)N2CCc3ccccc32)cc1OC (stereo not given),"inconclusive: 10 µM [inhibitor, partial curve]",
Cc1c(C2=CCN(S(=O)(=O)c3cccc(Cl)c3)CC2)c2ccccc2n1CC(=O)N1CCCC1,"inconclusive: 17.8 µM [inhibitor, single point]",
CN(Cc1ccccc1)S(=O)(=O)c1ccc(-c2cnc(C3CC3)o2)cc1,"inconclusive: 35.5 µM [inhibitor, single point]",
NC(=O)c1c(NC(=O)CN2C(=O)CCC2=O)sc2c1CCCCC2,,inactive: 5%
Clc1ccccc1-c1ccc2ncnc(NCc3cccs3)c2c1,"inconclusive: 22.4 µM [inhibitor, single point]",
Cc1ccc(S(=O)(=O)CCC(=O)OCC(=O)c2ccc(F)cc2)cc1,"inconclusive: 3.98 µM [inhibitor, full curve, poor fit]",
COc1ccc(CC(N)c2csc(Nc3nncc4ccccc34)n2)cc1 (stereo not given),"inconclusive: 35.5 µM [inhibitor, single point]",
Cc1cc(Cc2cc(C)c(O)c(CO)c2)cc(CO)c1O,"inconclusive: 22.4 µM [inhibitor, single point]",
O=S(=O)(c1ccc(F)cc1)N1CCN(C(=S)NCC2CCCO2)CC1 (stereo not given),,inactive: -0.159%
CCOc1ccc(NC(=O)NCCc2c(C)nn(C)c2C)cc1,,inactive: -7.89%
Oc1cccc2ccc(/C=C/c3cccs3)nc12,"inconclusive: 20 µM [inhibitor, single point]",
COc1ccc(OC)c(CNC(=O)c2ccc(-c3nc(CSc4ccccc4)c(C)o3)cc2)c1,,inactive: 11%
OC1CCCN(c2c3c(nc4cc(-c5cccc(Cl)c5)nn24)CCC3)C1 (stereo not given),"inconclusive: 35.5 µM [inhibitor, single point]",
Cc1cc[n+](CC(=O)c2ccc(NC(=O)c3ccccc3)cc2)c2ccccc12,,inactive: -6.86%
COc1ccc(CCn2c(C)c(C(C)=O)c(C(C)=O)c2C)cc1OC,,inactive: 2.17%
COc1ccc(OC)c(CNC(=O)c2[nH]c(C(F)(F)F)nc2-c2ccccc2)c1,"inconclusive: 3.98 µM [inhibitor, single point]",
Cc1ccc(S(=O)(=O)N2CCCCC2)cc1C(=O)OC(C)C(=O)NCC1CCCCC1 (stereo not given),"inconclusive: 15.8 µM [inhibitor, partial curve, poor fit]",

# Source: PubChem BioAssay AID588855 (National Center for Advancing Translational Sciences (NCATS), 2011)
